This is one part of the list. Sequences were assembled here from the parent chain. Values near 0.05 are background.
B1: TEV protease; numbered along this chain (parent)
chain: MGESLFKGPRDYNPISSSICHLTNESDGHTTSLYGIGFGPFIITNKHLFRRNNGTLVVQSLHGVFKVKDTTTLQQHLVDGRDMIIIRMPKDFPPFPQKLKFREPQREERICLVTTNFQTKSMSSMVSDTSCTFPSGDGIFWKHWIQTKDGQCGSPLVSTRDGFIVGIHSASNFTNTNNYFTSVPKNFMELLTNQEAQQWVSGWRLNADSVLWGGHKVFMVKPEEPFQPVKEATQL

Variants of: B1
Experiment: raw area under fraction-flipped curve 0-4 h after induction (AUC4h, not background-subtracted), DNA-recorder readout of cleavage of the substrate (dimensionless); higher = more cleavage of the substrate by the protease variant
Conditions: temperature: 34 °C; time window: 0-4 h after rhamnose induction
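Also: Bxb1 expression induced with 0.2% (w/v) L-rhamnose at OD600 near 0.5, cultures sampled hourly, flipped fraction per protease–substrate barcode pair counted by paired-end Illumina sequencing.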

Variant	area with substrate ENLYFGS	area with substrate ENLYFNS	area with substrate ENLYFTS	area with substrate ENLYFWS	area with substrate ENLYFIS	area with substrate ENLYFFS	area with substrate ENLYFHS	area with substrate ENLYFMS	area with substrate ENLYFRS	area with substrate ENLYFSS
A170R	0.0367	0.0512	0.0554	0.0503	–	–	–	–	–	–
A170I	–	–	–	–	0.0558	–	–	–	–	–
V229R	0.0613	0.04	–	–	–	0.067	0.0374	0.0786	0.0508	0.0484
L99K	–	–	–	–	–	–	–	–	0.0517	–
L99H	–	–	–	–	–	–	–	0.0632	–	–
L99W	–	–	0.0429	0.0298	0.0531	–	–	–	–	–
L235F	–	–	–	–	–	0.114	–	0.0698	–	–
N177Q	–	–	–	–	–	–	–	–	0.058	–
F6N	0.0874	–	0.0646	–	0.0597	–	0.0655	–	0.0468	–
L211D	–	–	–	–	0.0523	–	–	–	–	–
L211I	0.0728	–	–	0.0619	–	–	0.0493	–	–	–
F101S	–	–	–	–	–	–	–	0.0583	–	–
N186H	–	–	–	0.0524	–	–	–	–	–	–
N186R	–	–	–	–	0.0789	–	–	–	–	–
S154N	0.1	0.0617	–	–	–	–	–	–	–	–
F65V	–	–	–	–	–	–	–	–	0.0631	–
C131E	–	0.0642	–	–	–	–	–	–	–	–
C131Q	–	–	–	–	–	–	–	0.0618	–	–
C131P	0.0625	–	–	–	–	–	–	0.0729	–	–
N206L	0.0605	–	–	–	–	–	–	–	–	–
S169Y	–	–	–	0.0611	0.0681	–	–	–	–	–
Q97C	–	–	–	–	0.0607	–	–	–	–	–
Q97N	–	–	–	–	0.0568	–	–	0.0711	–	–
R51S	0.0895	0.069	–	0.0855	0.0481	–	–	0.0711	–	–
N116W	–	–	0.057	–	–	–	–	–	0.0622	–
W199Q	–	–	–	0.0413	–	–	–	0.0853	0.0655	–

Variant	area with substrate ENLYFGS	area with substrate ENLYFNS	area with substrate ENLYFTS	area with substrate ENLYFWS	area with substrate ENLYFIS	area with substrate ENLYFFS	area with substrate ENLYFHS	area with substrate ENLYFMS	area with substrate ENLYFRS	area with substrate ENLYFSS
K90M	–	–	–	–	–	–	0.0477	0.0785	0.0338	0.0523
T129H	–	–	–	–	0.0436	–	–	0.0611	0.0628	–
N172W	0.0405	0.0759	–	–	–	–	–	–	–	–
V58D	–	0.0356	0.0639	0.0513	–	–	–	0.0366	–	–
H215S	–	–	–	–	0.0704	0.0693	–	–	–	–
T132K	–	–	–	–	–	–	–	0.0537	0.0549	–
E189Y	–	–	–	–	0.0668	–	–	–	–	–
S158E	–	0.062	–	–	–	–	–	–	–	–
Q74P	0.0619	–	0.0555	0.0633	–	–	–	–	–	–
V78I	–	0.0726	0.0571	0.047	–	–	–	–	0.0656	–
N178Y	–	0.0797	–	0.0508	0.0453	–	0.0722	0.0815	–	–
N178M	–	–	–	0.0435	0.0477	–	–	–	–	–
G162N	–	–	0.0534	–	0.0712	–	–	–	–	–
G162V	0.0696	–	–	–	–	–	–	–	–	0.0554
E195H	–	–	0.0673	0.0412	0.044	–	–	0.071	–	0.0623
Y34H	0.0561	0.0668	–	0.0539	0.0741	–	–	0.0676	0.0704	0.0751
S171I	–	–	–	–	–	–	–	–	0.0588	0.0564
T119S	–	0.061	–	–	–	–	–	–	–	–
T119W	–	0.0703	–	–	–	–	0.0434	–	0.0574	0.0419
T119L	–	–	–	–	0.0607	–	–	–	0.0475	–
F38E	–	–	0.0535	–	–	–	–	–	–	–
F163D	–	–	–	–	0.0674	–	–	0.0772	–	–
F163M	–	0.0635	0.053	–	–	–	–	–	–	–
G35D	–	–	0.0331	0.0345	0.0424	–	0.0741	0.0338	0.0367	–
G35I	–	0.0479	–	–	–	–	–	–	–	–

Same assay, conditions: temperature: 34 °C; time window: 0-4 h after rhamnose induction

Variant	area with substrate ENLYFKS	area with substrate ENLYFPS	area with substrate ENLYFLS	area with substrate ENLYFYS	area with substrate ENLYFVS
L235F	0.0535	0.0518	–	–	–
N177Q	–	–	0.0506	–	–
F6N	0.0577	0.0533	–	0.074	–
L211I	0.0498	0.053	–	–	0.0463
F101S	–	0.0555	–	–	–
N186R	0.0668	–	–	0.0675	–
S154N	0.0631	–	–	–	–
F65V	0.0517	–	0.0632	0.0597	–
C131P	–	0.0494	–	–	0.068
S169Y	–	–	0.0594	–	–
G2S	–	–	–	0.0579	–
Q97R	–	0.0545	–	–	–
Q97Y	–	0.0487	–	–	–
R51S	–	0.0548	0.0687	–	–
N116W	–	0.0598	–	0.0484	–
W199Q	–	–	0.0525	–	–
K90M	–	0.049	–	–	–
N193M	–	0.0524	–	–	–
T129H	–	0.0648	–	–	–

Variant	area with substrate ENLYFKS	area with substrate ENLYFPS	area with substrate ENLYFLS	area with substrate ENLYFYS	area with substrate ENLYFVS
H215S	–	–	–	0.0573	–
T132K	0.0642	0.061	0.0527	–	–
D91E	0.0697	–	–	–	–
E189Y	–	–	–	0.0528	0.0487
S158E	–	–	0.0613	0.0476	0.0321
Q74P	–	–	–	0.0566	–
V78I	0.0505	–	–	–	–
V210E	–	–	–	0.0466	0.0572
N178Y	–	0.058	–	–	–
N178M	–	0.0376	0.0563	–	–
G162V	0.0487	0.0606	–	–	–
E195H	0.0653	–	–	0.0588	–
Y34H	0.0623	–	–	–	–
T119S	–	0.074	–	0.0545	–
T119L	–	–	–	0.0521	–
F38E	0.0404	–	–	–	–
F163D	–	0.053	–	–	–
G35I	–	–	–	–	0.0542
